The experiment has as its system human PBMC. Nature of the experiment: T cell depletion/Cytokine Release assay with human PBMC. Conditions: cells stained at D4 for abTCR expression. Type of experiment: cell-based. On the procedure:
Fc-engineered mutants were assessed through a PBMC proliferation assay and a cytokine release assay. In the PBMC proliferation assay, human PBMC were cultured with increasing concentrations of therapeutic antibody for 72 hours, ^3H-thymidine was added and cells were harvested 18 hours later. For the T cell depletion/Cytokine Release assay, human PBMC were cultured with increasing concentrations of therapeutic antibody and were analyzed daily for cell counts and viability (Vi-Cell. Beckman Coulter) out to day 7. Cell supernatants were also harvested, stored at −20° C. and analyzed on an 8-plex cytokine panel (Bio-Rad).
Normal donor PBMC were thawed and treated under the following conditions (all in media containing complement): Untreated: BMA031, moIgG2b 10 ug/ml; OKT3, moIgG2a 10 ug/mi; H66, huIgG1 deltaAB 10 ug/ml, 1 ug/ml and 0.1 ug/ml; H66, huIgG1 S298N/T299A/Y300S 10 ug/ml, 1 ug/ml and 0.1 ug/ml.
Cytokines were harvested at day 2 (D2) and day 4 (D4) for Bioplex Analysis (IL2. IL4, IL6, IL8. IL10, GM-CSF, IFNg, TNFa). Cells were stained at D4 for CD4, CD8, CD25 and abTCR expression.

B1: H66 S298N/T299A/Y300S: H66 anti-αβTCR mutant S298N/T299A/Y300S, heavy chain SEQ ID NO 26 (antibody)
heavy: EVQLLQSGGGLVQPGGSLRLSCAASGYKFTSYVMHWVRQAPGKGLEWVGYINPYNDVTKYNEKFKGRFTLSRDNSKNTLYLQMNSLRAEDTAVYYCARGSYYDYDGFVYWGQGTLVTVSSASTKGPSVFPLAPSSKSTSGGTAALGCLVKDYFPEPVTVSWNSGALTSGVHTFPAVLQSSGLYSLSSVVTVPSSSLGTQTYICNVNHKPSNTKVDKKV[sequence of human IgG1 Fc with S298N T299A Y300S (EU numbers) omitted]
light: EIVLTQSPATLSLSPGERATLSCSATSSVSYMHWYQQKPGQAPRRLIYDTSKLASGVPARFSGSGSGTSYTLTISSLEPEDFAVYYCQQWSSNPLTFGGGTKVEIKRTVAAPSVFIFPPSDEQLKSGTASVVCLLNNFYPREAKVQWKVDNALQSGNSQESVTEQDSKDSTYSLSSTLTLSKADYEKHKVYACEVTHQGLSSPVTKSFNRGEC
Consider B1, for which the “binding to abTCR on PBMC” value was “binding to abTCR”.

For the origin of these results see patent US12503498B2, “Fc containing polypeptides with altered glycosylation and reduced effector function” (Genzyme Corporation, priority 2012, dated 2025).
